# Reference: publication PMC12820563, “FoxP3 forms a head-to-head dimer in vivo and stabilizes its multimerization on adjacent microsatellites”
# The other results are listed elsewhere or left out.
# Target: T1, MBP-FoxP1dN (Mus musculus, UniProt P58462 326-579)
# T1 sequence: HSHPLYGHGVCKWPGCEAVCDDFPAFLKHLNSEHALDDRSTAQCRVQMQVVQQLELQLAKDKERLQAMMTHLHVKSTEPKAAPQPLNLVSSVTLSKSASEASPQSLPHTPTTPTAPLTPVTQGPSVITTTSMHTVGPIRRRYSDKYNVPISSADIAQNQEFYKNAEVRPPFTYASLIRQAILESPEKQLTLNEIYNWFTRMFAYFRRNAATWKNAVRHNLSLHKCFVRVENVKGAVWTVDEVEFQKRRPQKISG
# Test: PD-seq (MBP pull-down with sequencing); 20 mM Tris-HCl pH 7.5, 100 mM NaCl, 1.5 mM MgCl2, 0.4 uM protein, 0.1 uM dsDNA library, 30 min, room temperature, amylose pull-down; high values mean tight binding
# Conditions: protein: recombinant; tags: His6-MBP; chain copies: 2; dsDNA, one strand shown
# Procedure, shortened: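 Binding is the reads-per-million enrichment of pull-down relative to input, pooled across replicates. For this, 0.4 µM His6-MBP-tagged mouse FoxP3 or FoxP1 fragment lacking the N-terminus, made in E. coli, was incubated with 0.1 µM Klenow-filled double-stranded degenerate DNA library for 30 min at room temperature in Tris pH 7.5 buffer with NaCl and MgCl2. Complexes bound to amylose resin were washed three times before proteinase K released the DNA for PCR barcoding and Illumina sequencing.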
row,Sequence,binding signal
1,GATGATTGTTCTCCCAGCTGATGAATTTGTAGTTTCGAGTAAACAAATTTTCCTAATCTTTCTGTTCAAGCGCCATCTAC,1.18 RPM ratio (pull-down/input)
2,GATGATTGTTCTCCCAGCTGATGAATTACCGCTCTCGAGTAAACAAATTTTCCTAATCTTTCTGTTCAAGCGCCATCTAC,0.944 RPM ratio (pull-down/input)
3,GATGATTGTTCTCCCAGCTGATGAATTAGGACGCTCGAGTAAACAAATTTTCCTAATCTTTCTGTTCAAGCGCCATCTAC,0.944 RPM ratio (pull-down/input)
4,GATGATTGTTCTCCCAGCTGATGAATTGCAGTTGTCGAGTAAACAAATTTTCCTAATCTTTCTGTTCAAGCGCCATCTAC,1.34 RPM ratio (pull-down/input)
5,GATGATTGTTCTCCCAGCTGATGAATTTGAAGGCTCGAGTAAACAAATTTTCCTAATCTTTCTGTTCAAGCGCCATCTAC,0.783 RPM ratio (pull-down/input)
6,GATGATTGTTCTCCCAGCTGATGAATTGAATAATTCGAGTAAACAAATTTTCCTAATCTTTCTGTTCAAGCGCCATCTAC,0.946 RPM ratio (pull-down/input)
7,GATGATTGTTCTCCCAGCTGATGAATTCTAAACTTCGAGTAAACAAATTTTCCTAATCTTTCTGTTCAAGCGCCATCTAC,0.947 RPM ratio (pull-down/input)
8,GATGATTGTTCTCCCAGCTGATGAATTGCAGCCGTCGAGTAAACAAATTTTCCTAATCTTTCTGTTCAAGCGCCATCTAC,1.06 RPM ratio (pull-down/input)
9,GATGATTGTTCTCCCAGCTGATGAATTCTCGTGGTCGAGTAAACAAATTTTCCTAATCTTTCTGTTCAAGCGCCATCTAC,0.784 RPM ratio (pull-down/input)
10,GATGATTGTTCTCCCAGCTGATGAATTGAACAGATCGAGTAAACAAATTTTCCTAATCTTTCTGTTCAAGCGCCATCTAC,0.883 RPM ratio (pull-down/input)
11,GATGATTGTTCTCCCAGCTGATGAATTGGCTCGATCGAGTAAACAAATTTTCCTAATCTTTCTGTTCAAGCGCCATCTAC,0.816 RPM ratio (pull-down/input)
12,GATGATTGTTCTCCCAGCTGATGAATTGGCATTGTCGAGTAAACAAATTTTCCTAATCTTTCTGTTCAAGCGCCATCTAC,1.03 RPM ratio (pull-down/input)
13,GATGATTGTTCTCCCAGCTGATGAATTGACCGTCTCGAGTAAACAAATTTTCCTAATCTTTCTGTTCAAGCGCCATCTAC,0.883 RPM ratio (pull-down/input)
14,GATGATTGTTCTCCCAGCTGATGAATTCGAATCATCGAGTAAACAAATTTTCCTAATCTTTCTGTTCAAGCGCCATCTAC,0.948 RPM ratio (pull-down/input)
15,GATGATTGTTCTCCCAGCTGATGAATTCTCGCTCTCGAGTAAACAAATTTTCCTAATCTTTCTGTTCAAGCGCCATCTAC,0.867 RPM ratio (pull-down/input)
16,GATGATTGTTCTCCCAGCTGATGAATTCGAGCGGTCGAGTAAACAAATTTTCCTAATCTTTCTGTTCAAGCGCCATCTAC,0.717 RPM ratio (pull-down/input)
17,GATGATTGTTCTCCCAGCTGATGAATTAATGCGTTCGAGTAAACAAATTTTCCTAATCTTTCTGTTCAAGCGCCATCTAC,1.28 RPM ratio (pull-down/input)
18,GATGATTGTTCTCCCAGCTGATGAATTATGTGGCTCGAGTAAACAAATTTTCCTAATCTTTCTGTTCAAGCGCCATCTAC,1.08 RPM ratio (pull-down/input)
19,GATGATTGTTCTCCCAGCTGATGAATTGCAAACATCGAGTAAACAAATTTTCCTAATCTTTCTGTTCAAGCGCCATCTAC,2.29 RPM ratio (pull-down/input)
20,GATGATTGTTCTCCCAGCTGATGAATTGATCAAGTCGAGTAAACAAATTTTCCTAATCTTTCTGTTCAAGCGCCATCTAC,0.948 RPM ratio (pull-down/input)

row,Sequence,binding signal
1,GATGATTGTTCTCCCAGCTGATGAATTTTTAGGATCGAGTAAACAAATTTTCCTAATCTTTCTGTTCAAGCGCCATCTAC,0.839 RPM ratio (pull-down/input)
2,GATGATTGTTCTCCCAGCTGATGAATTCCGCTCGTCGAGTAAACAAATTTTCCTAATCTTTCTGTTCAAGCGCCATCTAC,0.791 RPM ratio (pull-down/input)
3,GATGATTGTTCTCCCAGCTGATGAATTTCCCACGTCGAGTAAACAAATTTTCCTAATCTTTCTGTTCAAGCGCCATCTAC,0.92 RPM ratio (pull-down/input)
4,GATGATTGTTCTCCCAGCTGATGAATTTTTTGTGTCGAGTAAACAAATTTTCCTAATCTTTCTGTTCAAGCGCCATCTAC,1.12 RPM ratio (pull-down/input)
5,GATGATTGTTCTCCCAGCTGATGAATTAGGCACGTCGAGTAAACAAATTTTCCTAATCTTTCTGTTCAAGCGCCATCTAC,0.943 RPM ratio (pull-down/input)
6,GATGATTGTTCTCCCAGCTGATGAATTTTGAGCGTCGAGTAAACAAATTTTCCTAATCTTTCTGTTCAAGCGCCATCTAC,0.967 RPM ratio (pull-down/input)
7,GATGATTGTTCTCCCAGCTGATGAATTGGCGATATCGAGTAAACAAATTTTCCTAATCTTTCTGTTCAAGCGCCATCTAC,0.926 RPM ratio (pull-down/input)
8,GATGATTGTTCTCCCAGCTGATGAATTTTAGGAGTCGAGTAAACAAATTTTCCTAATCTTTCTGTTCAAGCGCCATCTAC,0.815 RPM ratio (pull-down/input)
9,GATGATTGTTCTCCCAGCTGATGAATTATGGGGATCGAGTAAACAAATTTTCCTAATCTTTCTGTTCAAGCGCCATCTAC,0.922 RPM ratio (pull-down/input)
10,GATGATTGTTCTCCCAGCTGATGAATTACGTTAATCGAGTAAACAAATTTTCCTAATCTTTCTGTTCAAGCGCCATCTAC,1.2 RPM ratio (pull-down/input)
11,GATGATTGTTCTCCCAGCTGATGAATTTCATCCCTCGAGTAAACAAATTTTCCTAATCTTTCTGTTCAAGCGCCATCTAC,0.818 RPM ratio (pull-down/input)
12,GATGATTGTTCTCCCAGCTGATGAATTACGACCCTCGAGTAAACAAATTTTCCTAATCTTTCTGTTCAAGCGCCATCTAC,0.931 RPM ratio (pull-down/input)
13,GATGATTGTTCTCCCAGCTGATGAATTCGGGGCATCGAGTAAACAAATTTTCCTAATCTTTCTGTTCAAGCGCCATCTAC,0.909 RPM ratio (pull-down/input)
14,GATGATTGTTCTCCCAGCTGATGAATTCGAAAGTTCGAGTAAACAAATTTTCCTAATCTTTCTGTTCAAGCGCCATCTAC,0.839 RPM ratio (pull-down/input)
15,GATGATTGTTCTCCCAGCTGATGAATTTTGGGTTTCGAGTAAACAAATTTTCCTAATCTTTCTGTTCAAGCGCCATCTAC,0.87 RPM ratio (pull-down/input)
16,GATGATTGTTCTCCCAGCTGATGAATTTGAGGTCTCGAGTAAACAAATTTTCCTAATCTTTCTGTTCAAGCGCCATCTAC,0.712 RPM ratio (pull-down/input)
17,GATGATTGTTCTCCCAGCTGATGAATTTTGGTTATCGAGTAAACAAATTTTCCTAATCTTTCTGTTCAAGCGCCATCTAC,1.17 RPM ratio (pull-down/input)
18,GATGATTGTTCTCCCAGCTGATGAATTGAGGGGTTCGAGTAAACAAATTTTCCTAATCTTTCTGTTCAAGCGCCATCTAC,0.794 RPM ratio (pull-down/input)
19,GATGATTGTTCTCCCAGCTGATGAATTGTGTTGATCGAGTAAACAAATTTTCCTAATCTTTCTGTTCAAGCGCCATCTAC,2.46 RPM ratio (pull-down/input)
20,GATGATTGTTCTCCCAGCTGATGAATTCTCCCGTTCGAGTAAACAAATTTTCCTAATCTTTCTGTTCAAGCGCCATCTAC,0.944 RPM ratio (pull-down/input)
